# Results published in the supplement of paper PMC3334620.
# The full ranking holds about 33,000 sequences; the median of “E-score (-0.5 to 0.5)” is about -0.013, and the highest 2% start at about 0.3. Some of the results follow.
# Target: T1, Msn1 (UniProt P22148)
# T1 sequence: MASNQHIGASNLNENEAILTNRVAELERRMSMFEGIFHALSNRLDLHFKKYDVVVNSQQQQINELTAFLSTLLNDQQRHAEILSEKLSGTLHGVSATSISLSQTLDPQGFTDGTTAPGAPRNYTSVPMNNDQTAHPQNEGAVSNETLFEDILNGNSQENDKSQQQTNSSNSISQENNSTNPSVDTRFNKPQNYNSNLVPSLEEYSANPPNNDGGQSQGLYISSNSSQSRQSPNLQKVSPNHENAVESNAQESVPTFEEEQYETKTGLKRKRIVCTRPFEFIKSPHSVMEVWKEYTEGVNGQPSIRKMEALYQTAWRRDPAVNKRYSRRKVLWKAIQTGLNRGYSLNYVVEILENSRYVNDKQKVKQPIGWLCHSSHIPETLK
# Assay: PBM E-score (8-mer binding enrichment) (E-score (-0.5 to 0.5)); higher = stronger / more preferred TF binding; most listed sequences are background and not binding sites
# Settings: protein concentration: 200 nM; construct: GST-full length
# Summary of the method: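 Detection of bound protein used fluorescent anti-GST, with scans normalised by masliner. The proteins were GST-tagged yeast transcription factors applied at about 100-200 nM to universal all-10-mer Agilent arrays made double-stranded by primer extension. Each ungapped eight-base word, pooled with its reverse complement, was scored with an E-score from the Universal PBM Analysis Suite.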
row,Sequence,PBM E-score
1,AGAATTAT,0.0891
2,ACAGCTGA,-0.0496
3,ACGTCGGA,-0.0834
4,AGGTTCAG,-0.061
5,CTTCCTCC,-0.239
6,CTTAAAAA,0.0876
7,AACGCGTG,0.0608
8,CTAAGCTA,-0.0424
9,AAGTCACC,-0.0109
10,AGTCGGGC,-0.0664
11,ACTGCTCC,-0.046
12,GGAGCTGA,-0.102
13,CTCTTGGA,-0.016
14,CCAGGGAG,-0.331
15,ATTGACTA,-0.0987
16,GGCCGTCA,-0.153
17,GAAATCTC,-0.0374
18,CATCCTTA,-0.116
19,AGAAGGGG,-0.266
20,CCGCCTCA,-0.171
21,CCTGCGCG,-0.124
22,ACGTTAAC,0.0282
23,CGAAGATA,0.0502
24,ACATTCAC,0.223
25,ACGCTCTG,-0.116

row,Sequence,PBM E-score
1,CCACCATA,-0.22
2,ATTTGATG,-0.00854
3,GTCTCCCA,-0.172
4,AGGATCTC,-0.137
5,AAACACTC,0.103
6,AGCACACA,-0.143
7,CTGCACAA,0.011
8,CAACCGAC,0.187
9,CTTCGTGA,0.00689
10,ATGGGTGC,-0.12
11,AGGAGTCC,-0.192
12,TCGGCACA,0.0287
13,ACCCGGCT,-0.169
14,GACGGCCC,-0.328
15,ATCATCCG,-0.0827
16,CCGAGTTA,0.0697
17,GACTGTTA,0.0353
18,TCTGCACA,0.077
19,AAGCAGGC,-0.309
20,CTGTTCCA,-0.0479
21,AAGACAAC,0.221
22,GCAAGGAC,0.395
23,GCACCTGA,0.133
24,GCGGAAAA,0.113
25,AAGTCTAG,-0.107

row,Sequence,PBM E-score
1,ACCATGAC,0.181
2,ATTTGACC,0.0269
3,ACACAGTA,0.239
4,ACCCTGAT,-0.0959
5,ACAGAACT,0.065
6,AACGATGG,-0.107
7,CTGATATC,-0.0457
8,AATCTAAA,0.0237
9,AGATGAGA,-0.0935
10,ATAAGGGC,-0.11
11,ATCACCAC,0.0496
12,AGGCAAAC,0.0501
13,ACTTAGCG,0.074
14,GTCGAACA,0.169
15,ACTTTGAA,0.0379
16,CAGTAGTC,-0.305
17,CACCGCTC,-0.232
18,ATGATATG,0.213
19,GTGCACGA,-0.0525
20,CCTTCTCG,-0.268
21,GGAGTGAC,0.0714
22,CAGAGAGG,-0.274
23,AAAGAGTT,-0.0984
24,AAACAACC,0.00751
25,GTTAGAAA,-0.0269

row,Sequence,PBM E-score
1,CCACGGGG,-0.212
2,CCGCCAAC,-0.179
3,GTGAGAAA,0.124
4,AGAGAGGA,0.00154
5,ATTTCTGC,0.164
6,CTTAAGCA,-0.0812
7,CCCGCATA,0.0346
8,GCCGTACA,0.177
9,CAGATAAC,-0.0567
10,ACTCGTGG,0.0321
11,CTCTCAGA,-0.151
12,ACCGTTAG,0.0723
13,AGCCAATG,-0.128
14,AATATGAC,0.243
15,CCTATTAA,0.0343
16,ACCGGTAA,-0.0138
17,GTGTCGTA,0.228
18,CCCTGCCG,-0.254
19,GAGGAGGA,-0.304
20,AATTATTG,0.139
21,TAGATTCA,-0.192
22,CCCGGACA,0.425
23,ACACGCGA,0.216
24,ATCCAGCC,-0.109
25,CTTATGTA,0.124

row,Sequence,PBM E-score
1,TAACGTAA,-0.0647
2,CGGACAGA,0.302
3,CTTTTAAC,0.0576
4,GTGCGTCA,0.0646
5,CAACTAGC,0.139
6,GGTACGCA,0.141
7,GTGCCGTA,0.0364
8,CGGGTCAC,-0.134
9,AAACGGTT,-0.0672
10,ACGCCTAG,-0.0718
11,AGAATCGA,0.0469
12,CGTATCAG,-0.0169
13,ATTCAGAG,0.152
14,CCGAACTA,0.074
15,CACGAGAC,0.0936
16,GTCGGTCA,0.0653
17,AGACTGAA,0.0137
18,ACCTCCAT,-0.0948
19,CCCGTTCG,-0.0405
20,AACTTGGT,0.0403
21,AAAGTCCG,0.342
22,CCACATAG,-0.102
23,AAAGTCAC,0.266
24,CCCCCTAA,-0.259
25,TCACTACA,0.161

row,Sequence,PBM E-score
1,TACCAATA,0.0996
2,AAAAAGCA,-0.0461
3,GAGTTCAC,-0.0688
4,AAAGGATG,0.0884
5,GGACCGCC,-0.202
6,ACCGTGCT,-0.258
7,AGTATTGG,-0.0788
8,CAGGTATG,0.00988
9,CGCTCGAC,-0.116
10,TCGGATCA,0.157
11,CTCCTGAC,-0.00148
12,CAGTAAGG,0.0234
13,CTTAGCGC,0.0554
14,AGAACGAC,0.0155
15,AAACGAAT,0.0996
16,AGCGTCTG,-0.0393
17,TATTCAGA,0.0873
18,ATCGTTCC,-0.227
19,ACCCTTAG,-0.284
20,ATATCACA,-0.0916
21,AAACGTAA,0.188
22,CACGGGTA,-0.0296
23,CAAGGGAC,0.184
24,AGATGGTA,-0.021
25,CTGCTAAA,0.019

row,Sequence,PBM E-score
1,CGTGGCGC,-0.164
2,AGTTACAT,-0.0774
3,GCGGGACA,0.359
4,AAACTAGA,0.0886
5,CTCTACTC,-0.0572
6,GTTAGAGA,-0.157
7,AATTCCCA,0.0207
8,AGAACTTA,0.138
9,ACCTAGGG,-0.032
10,ATAGGTAC,0.199
11,CTTTCGAA,0.0657
12,AGACCATG,-0.223
13,TAAGAGAA,0.177
14,GATGGCTA,0.0368
15,TGAACACA,-0.0391
16,AGTCATAG,-0.0132
17,CGTCAGCC,-0.00769
18,ATAATACA,0.262
19,CGAACAAC,0.113
20,ATAGTCCG,0.25
21,GATGGGCC,-0.344
22,GATGAACC,-0.00439
